Molecular target: Recombinant heterodimeric HCV NS3/NS4A protease (strain 1a) (Hepatitis C virus genotype 1a, UniProt P27958)
Experiment: Spectrophotometric assay for HCV serine protease inhibitory activity (chromogenic ester substrates)
Assay type: biochemical
Details: Table 3A; cells that print a number instead of a class symbol; read-out: Ki* Range

SMILES | Ki
CCCC[C@H](NC(=O)[C@@H]1[C@@H]2[C@H](CN1C(=O)[C@@H](NC(=O)NC1(CS(=O)(=O)C(C)(C)C)CCCCC1)C(C)(C)C)C2(C)C)C(=O)C(=O)NC1CC1 [Compound 843] | 11 nM
C=CCNC(=O)C(=O)[C@H](CCC1CC1)NC(=O)[C@@H]1[C@@H]2[C@H](CN1C(=O)[C@@H](NC(=O)NC1(C3CCCCS3(=O)=O)CCCCC1)C(C)(C)C)C2(C)C (stereo partly drawn) [Compound 856] | 5 nM

Same assay, conditions: Table 3A; class symbols; read-out: Ki* Range

SMILES | Ki
C=CCNC(=O)C(=O)[C@H](CCCC)NC(=O)[C@@H]1[C@@H]2[C@H](CN1C(=O)[C@@H](NC(=O)NC1([C@@H]3CCCS3(=O)=O)CCCCC1)C(C)(C)C)C2(Cl)Cl [Compound 814] | < 75 nM
CCC[C@H](NC(=O)[C@@H]1[C@@H]2[C@H](CN1C(=O)[C@@H](NC(=O)NC1([C@H]3CCCS3(=O)=O)CCCCC1)C(C)(C)C)C2(Cl)Cl)C(=O)C(=O)NC1CC1 [Compound 815] | < 75 nM
CCC[C@H](NC(=O)[C@@H]1[C@@H]2[C@H](CN1C(=O)[C@@H](NC(=O)NC1([C@@H]3CCCS3(=O)=O)CCCCC1)C(C)(C)C)C2(Cl)Cl)C(=O)C(=O)NC1CC1 [Compound 816] | < 75 nM
CC1([C@H](NC(=O)NC2(C3CCCS3(=O)=O)CCCCC2)C(=O)N2C[C@H]3[C@@H]([C@H]2C(=O)N[C@@H](CCC2CC2)C(=O)C(=O)NC2CC2)C3(C)C)CCCCC1 (stereo partly drawn) [Compound 817] | < 75 nM
C=CCNC(=O)C(=O)[C@H](CCC)NC(=O)[C@@H]1[C@@H]2[C@H](CN1C(=O)[C@@H](NC(=O)NC1(C3CCCCS3(=O)=O)CCCCC1)C1(C)CCCCC1)C2(C)C (stereo partly drawn) [Compound 818] | < 75 nM
CCCC[C@H](NC(=O)[C@@H]1[C@@H]2[C@H](CN1C(=O)[C@@H](NC(=O)NC1([C@H]3CCCS3(=O)=O)CCCCC1)C(C)(C)C)C2(Cl)Cl)C(=O)C(=O)NC1CC1 [Compound 819] | < 75 nM
CCCC[C@H](NC(=O)[C@@H]1[C@@H]2[C@H](CN1C(=O)[C@@H](NC(=O)NC1([C@@H]3CCCS3(=O)=O)CCCCC1)C(C)(C)C)C2(Cl)Cl)C(=O)C(=O)NC1CC1 [Compound 820] | < 75 nM
C=CCNC(=O)C(=O)[C@H](CCC)NC(=O)[C@@H]1[C@@H]2[C@H](CN1C(=O)[C@@H](NC(=O)NC1(C3CCCCS3(=O)=O)CCCCC1)C(C)(C)C)C2(C)C (stereo partly drawn) [Compound 821] | < 75 nM
C=CCNC(=O)C(=O)[C@H](CCC)NC(=O)[C@@H]1[C@@H]2[C@H](CN1C(=O)[C@@H](NC(=O)NC1(CS(=O)(=O)C3(C)CCOCC3)CCCCC1)C(C)(C)C)C2(C)C [Compound 822] | < 75 nM
C=CCNC(=O)C(=O)[C@H](CCCC)NC(=O)[C@@H]1[C@@H]2[C@H](CN1C(=O)[C@@H](NC(=O)NC1(CS(=O)(=O)C3(C)CCOCC3)CCCCC1)C(C)(C)C)C2(C)C [Compound 823] | < 75 nM
C=CCNC(=O)C(=O)[C@H](CC1CC1)NC(=O)[C@@H]1[C@@H]2[C@H](CN1C(=O)[C@@H](NC(=O)NC1(CS(=O)(=O)C3(C)CCOCC3)CCCCC1)C(C)(C)C)C2(C)C [Compound 824] | < 75 nM
C=CCNC(=O)C(=O)[C@H](CCC)NC(=O)[C@@H]1[C@@H]2[C@H](CN1C(=O)[C@@H](NC(=O)NC1([C@H]3CCCS3(=O)=O)CCCCC1)C(C)(C)C)C2(Cl)Cl [Compound 825] | < 75 nM
C=CCNC(=O)C(=O)[C@H](CCC)NC(=O)[C@@H]1[C@@H]2[C@H](CN1C(=O)[C@@H](NC(=O)NC1([C@@H]3CCCS3(=O)=O)CCCCC1)C(C)(C)C)C2(Cl)Cl [Compound 826] | < 75 nM
C=CCNC(=O)C(=O)[C@H](CC1CC1)NC(=O)[C@@H]1[C@@H]2[C@H](CN1C(=O)[C@@H](NC(=O)NC1([C@H]3CCCS3(=O)=O)CCCCC1)C(C)(C)C)C2(Cl)Cl [Compound 827] | < 75 nM
C=CCNC(=O)C(=O)[C@H](CC1CC1)NC(=O)[C@@H]1[C@@H]2[C@H](CN1C(=O)[C@@H](NC(=O)NC1([C@@H]3CCCS3(=O)=O)CCCCC1)C(C)(C)C)C2(Cl)Cl [Compound 828] | < 75 nM
CCC[C@H](NC(=O)[C@@H]1[C@@H]2[C@H](CN1C(=O)[C@@H](NC(=O)NC1(C3CCCCS3(=O)=O)CCCCC1)C(C)(C)C)C2(C)C)C(=O)C(=O)NC1CC1 (stereo partly drawn) [Compound 829] | < 75 nM
C=CCNC(=O)C(=O)[C@H](CCCC)NC(=O)[C@@H]1[C@@H]2[C@H](CN1C(=O)[C@@H](NC(=O)NC1(C3CCCCS3(=O)=O)CCCCC1)C(C)(C)C)C2(C)C (stereo partly drawn) [Compound 830] | < 75 nM
CCC[C@H](NC(=O)[C@@H]1[C@@H]2[C@H](CN1C(=O)[C@@H](NC(=O)NC1(CS(=O)(=O)C3(C)CCOCC3)CCCCC1)C(C)(C)C)C2(C)C)C(=O)C(=O)NC1CC1 [Compound 832] | < 75 nM
CCCC[C@H](NC(=O)[C@@H]1[C@@H]2[C@H](CN1C(=O)[C@@H](NC(=O)NC1(CS(=O)(=O)C3(C)CCOCC3)CCCCC1)C(C)(C)C)C2(C)C)C(=O)C(=O)NC1CC1 [Compound 833] | < 75 nM
C=CCNC(=O)C(=O)[C@H](CCC)NC(=O)[C@@H]1CC2(CN1C(=O)[C@@H](NC(=O)NC1(CS(=O)(=O)C(C)(C)C)CCCCC1)C(C)(C)C)SCCCS2 [Compound 834] | < 75 nM
CC1([C@H](NC(=O)NC2([C@@H]3CCCS3(=O)=O)CCCCC2)C(=O)N2C[C@H]3[C@@H]([C@H]2C(=O)N[C@@H](CCC2CC2)C(=O)C(=O)NC2CC2)C3(C)C)CCCCC1 [Compound 835] | < 75 nM
CCC[C@H](NC(=O)[C@@H]1[C@@H]2[C@H](CN1C(=O)[C@@H](NC(=O)NC1([C@@H]3CCCS3(=O)=O)CCCCC1)C(C)(C)C)C2(C)C)C(=O)C(=O)NC1CC1 [Compound 836] | < 75 nM

SMILES | Ki
CCCC[C@H](NC(=O)[C@@H]1[C@@H]2[C@H](CN1C(=O)[C@@H](NC(=O)NC1([C@@H]3CCS3(=O)=O)CCCCC1)C(C)(C)C)C2(C)C)C(=O)C(=O)NC1CC1 [Compound 837] | < 75 nM
C=CCNC(=O)C(=O)[C@H](CCCC)NC(=O)[C@@H]1[C@@H]2[C@H](CN1C(=O)[C@@H](NC(=O)NC1([C@@H]3CCS3(=O)=O)CCCCC1)C(C)(C)C)C2(C)C [Compound 838] | < 75 nM
C=CCNC(=O)C(=O)[C@H](CCC)NC(=O)[C@@H]1CC2(CN1C(=O)[C@@H](NC(=O)NC1(C3CCCS3(=O)=O)CCCCC1)C(C)(C)C)SCCCS2 (stereo partly drawn) [Compound 845] | < 75 nM
CCC[C@H](NC(=O)[C@@H]1CC2(CN1C(=O)[C@@H](NC(=O)NC1([C@@H]3CCCS3(=O)=O)CCCCC1)C1(C)CCCCC1)SCCCS2)C(=O)C(=O)NC1CC1 [Compound 846] | < 75 nM
CCC[C@H](NC(=O)[C@@H]1CC2(CN1C(=O)[C@@H](NC(=O)NC1([C@H]3CCCS3(=O)=O)CCCCC1)C1(C)CCCCC1)SCCCS2)C(=O)C(=O)NC1CC1 [Compound 847] | < 75 nM
CCC[C@@H](NC(=O)[C@@H]1CC2(CN1C(=O)[C@@H](NC(=O)NC1([C@@H]3CCCS3(=O)=O)CCCCC1)C1(C)CCCCC1)SCCCS2)C(=O)C(=O)NC1CC1 [Compound 848] | 75 to 250 nM
CCC[C@@H](NC(=O)[C@@H]1CC2(CN1C(=O)[C@@H](NC(=O)NC1([C@H]3CCCS3(=O)=O)CCCCC1)C1(C)CCCCC1)SCCCS2)C(=O)C(=O)NC1CC1 [Compound 849] | 75 to 250 nM
C=CCNC(=O)C(=O)[C@H](CCCC)NC(=O)[C@@H]1[C@@H]2[C@H](CN1C(=O)[C@@H](NC(=O)NC1(CS(=O)(=O)C(C)(C)COC)CCCCC1)C1(C)CCCCC1)C2(C)C [Compound 850] | < 75 nM
C=CCNC(=O)C(=O)[C@H](CCCC)NC(=O)[C@@H]1[C@@H]2[C@H](CN1C(=O)[C@@H](NC(=O)NC1(CS(=O)(=O)C(C)(C)COCC)CCCCC1)C(C)(C)C)C2(C)C [Compound 851] | < 75 nM
C=CCNC(=O)C(=O)[C@H](CCC1CC1)NC(=O)[C@@H]1[C@@H]2[C@H](CN1C(=O)[C@@H](NC(=O)NC1(CS(=O)(=O)C(C)(C)CO)CCCCC1)C1(C)CCCCC1)C2(C)C [Compound 852] | < 75 nM
C=CCNC(=O)C(=O)[C@H](CC1CC1)NC(=O)[C@@H]1[C@@H]2[C@H](CN1C(=O)[C@@H](NC(=O)NC1(CS(=O)(=O)C(C)(C)CF)CCCCC1)C1(C)CCCCC1)C2(C)C [Compound 853] | < 75 nM
CC(C)(C)[C@H](NC(=O)NC1(C2CCCS2(=O)=O)CCCCC1)C(=O)N1C[C@H]2[C@@H]([C@H]1C(=O)N[C@@H](CCC1CC1)C(=O)C(=O)NC1CC1)C2(Cl)Cl (stereo partly drawn) [Compound 854] | < 75 nM
C#CCNC(=O)C(=O)[C@H](CCC1CC1)NC(=O)[C@@H]1[C@@H]2[C@H](CN1C(=O)[C@@H](NC(=O)NC1(CS(=O)(=O)C3CCCC3)CCCCC1)C(C)(C)C)C2(C)C [Compound 855] | < 75 nM
C=CCNC(=O)C(=O)[C@H](CC1CC1)NC(=O)[C@@H]1[C@@H]2[C@H](CN1C(=O)[C@@H](NC(=O)NC1([C@@H]3CC(C)(C)CCS3(=O)=O)CCCCC1)C(C)(C)C)C2(C)C [Compound 857] | < 75 nM
C=CCNC(=O)C(=O)[C@H](CCCC)NC(=O)[C@@H]1[C@@H]2[C@H](CN1C(=O)[C@@H](NC(=O)NC1([C@@H]3CC(C)(C)CCS3(=O)=O)CCCCC1)C(C)(C)C)C2(C)C [Compound 858] | < 75 nM
CCCC[C@H](NC(=O)[C@@H]1[C@@H]2[C@H](CN1C(=O)[C@@H](NC(=O)NC1([C@@H]3CC(C)(C)CCS3(=O)=O)CCCCC1)C(C)(C)C)C2(C)C)C(=O)C(=O)NC1CC1 [Compound 859] | < 75 nM
CC1(C)CCS(=O)(=O)[C@H](C2(NC(=O)N[C@H](C(=O)N3C[C@H]4[C@@H]([C@H]3C(=O)N[C@@H](CCC3CC3)C(=O)C(=O)NC3CC3)C4(C)C)C(C)(C)C)CCCCC2)C1 [Compound 860] | < 75 nM
C#CCNC(=O)C(=O)[C@H](CCC1CC1)NC(=O)[C@@H]1[C@@H]2[C@H](CN1C(=O)[C@@H](NC(=O)NC1(CS(=O)(=O)C3CCCCC3)CCCCC1)C(C)(C)C)C2(C)C [Compound 864] | < 75 nM
C=CCNC(=O)C(=O)[C@H](CCCC)NC(=O)[C@@H]1[C@@H]2[C@H](CN1C(=O)[C@@H](NC(=O)NC1(CS(=O)(=O)C(C)(C)C)CCCCC1)C1CCCCC1)C2(C)C [Compound 865] | < 75 nM
CCCC[C@H](NC(=O)[C@@H]1[C@@H]2[C@H](CN1C(=O)[C@@H](NC(=O)NC1(CS(=O)(=O)C(C)(C)C)CCCCC1)C1(C)CCCCC1)C2(C)C)C(=O)C(=O)NC1CC1 [Compound 866] | < 75 nM
C=CCNC(=O)C(=O)C(CCC1CC1)NC(=O)[C@@H]1[C@@H]2[C@H](CN1C(=O)[C@@H](NC(=O)NC1(CS(=O)(=O)C3(CO)CCCCC3)CCCCC1)C(C)(C)C)C2(C)C (stereo partly drawn) [Compound 867] | < 75 nM

From patent US8067379B2, “Sulfur compounds as inhibitors of hepatitis C virus NS3 serine protease” (Schering Corporation, priority 2004, dated 2011)
